# Reference: the BET-seq Pho4 binding data (Le et al. 2018)
# The other results are listed elsewhere or left out. The energies were worked out here from pooled read counts, against the library average; single values are noisy.
# Molecular target: T1, Pho4 (S. cerevisiae) (UniProt P07270)
# T1 sequence: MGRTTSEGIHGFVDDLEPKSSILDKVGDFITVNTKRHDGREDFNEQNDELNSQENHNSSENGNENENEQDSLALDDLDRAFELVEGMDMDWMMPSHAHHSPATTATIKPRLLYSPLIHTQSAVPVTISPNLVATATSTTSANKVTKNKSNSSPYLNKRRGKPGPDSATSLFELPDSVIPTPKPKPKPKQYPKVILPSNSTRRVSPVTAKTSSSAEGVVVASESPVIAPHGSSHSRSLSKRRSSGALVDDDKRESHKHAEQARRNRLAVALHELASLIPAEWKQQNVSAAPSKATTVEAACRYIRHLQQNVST
# Assay: relative binding free energy (BET-seq); higher = weaker binding
# Details: reference: library average
row,Sequence,relative binding free energy [kcal/mol]
1,GGGGCCACGTGAGGTT,0.21
2,TTTACCACGTGCGGGG,0.03
3,GTGTGCACGTGGGAAC,-0.11
4,CTGTTCACGTGGCGAT,0.31
5,TTTTTCACGTGACGGA,0.34
6,AGGTCCACGTGGATTT,0.06
7,AAAGGCACGTGTGGGG,-0.09
8,TTACTCACGTGTGTGA,0.1
9,GGGCTCACGTGGTGGG,0.35
10,AGAGGCACGTGGCGAG,-0.35
11,TTATTCACGTGGCAGT,0.25
12,CTAGGCACGTGGTGGA,-0.16
13,GTGGGCACGTGTACTT,-0.03
14,TTGAGCACGTGCTGGT,-0.12
15,TTGTTCACGTGGTCAC,0.4
16,GACGGCACGTGAGGTG,0.16
17,GGTTCCACGTGTGGTG,-0.1
18,TTTCTCACGTGGGATA,0.13
19,AGTTTCACGTGGAAGA,0.34
20,TTTGTCACGTGACGTT,0.12
21,GATTTCACGTGGGTTC,0.41
22,AATTTCACGTGTGTTC,0.28
23,TTTCGCACGTGTGGTG,-0.11

row,Sequence,relative binding free energy [kcal/mol]
1,ACGTACACGTGGGGGC,-0.15
2,GCTATCACGTGGGGCT,0.05
3,AGTTGCACGTGTGCGT,-0.07
4,ATTAACACGTGTACGG,0.07
5,TTGCGCACGTGAGTTA,0.03
6,AATAGCACGTGTTATT,-0.04
7,AGGCTCACGTGTGTTT,0.13
8,TTCGTCACGTGCGTGG,0.11
9,ATGTGCACGTGACGTG,0.07
10,GTGGCCACGTGGTATA,-0.08
11,AAAATCACGTGTGGTA,0.15
12,TATAGCACGTGGGATT,-0.08
13,TATATCACGTGTGCTA,0.08
14,ATTCTCACGTGTGGGG,0.2
15,TCTCGCACGTGTAGTG,-0.01
16,ATGGTCACGTGGAATT,0.31
17,GGTTGCACGTGTAGGC,0.09
18,GAGCTCACGTGGTGGT,0.09
19,AGTGGCACGTGCGAGT,-0.15
20,TTGCACACGTGGAGGG,-0.14
21,TTGGTCACGTGAGTTT,0.27
22,AGGGGCACGTGGACGT,-0.12
23,GTGCGCACGTGGCAGT,-0.21

row,Sequence,relative binding free energy [kcal/mol]
1,CGTGTCACGTGTTACG,0.12
2,TGTAGCACGTGTGCGC,-0.2
3,AAATACACGTGGGGTA,-0.13
4,GTGCACACGTGTGGCG,0.07
5,AGGTACACGTGGCTGA,0
6,CGTTACACGTGGGTAT,0.05
7,GTAAACACGTGTGTAA,0.12
8,TGAGCCACGTGGGGTT,-0.22
9,AGAGTCACGTGGGGTT,-0.02
10,ATTCGCACGTGTGTGC,-0.13
11,AGCGGCACGTGTATGG,-0.01
12,CTGAGCACGTGTGATA,0.17
13,GCGGTCACGTGGTTCT,0.08
14,GTGATCACGTGGGCTT,0.05
15,ACCGGCACGTGTTTAT,0.23
16,TCCGGCACGTGTTGTG,0.02
17,TCGTTCACGTGTAAAG,0.34
18,TTTCACACGTGGGCTT,-0.05
19,CTTGTCACGTGGTAAA,0.03
20,CATAGCACGTGTAGTG,0.01
21,TGCAGCACGTGTGGCT,-0.15
22,AATAGCACGTGGGCGG,-0.25
23,ATCGGCACGTGGTTGG,0.01

row,Sequence,relative binding free energy [kcal/mol]
1,CAGTGCACGTGTGTTA,-0.06
2,GTTCTCACGTGTGTCT,0.23
3,TTTATCACGTGAGGCT,0.4
4,ATGGTCACGTGTATCT,0.11
5,ACTTGCACGTGGCGTG,-0.03
6,TGTTGCACGTGTCATA,-0.09
7,GTATGCACGTGCCTGG,0.03
8,CGGTGCACGTGGTGGA,-0.11
9,GCTGACACGTGAGTGG,0.31
10,TGGGTCACGTGTTTGA,0.07
11,AGTAACACGTGGTCAG,-0.05
12,TCGGGCACGTGGGGCG,-0.26
13,ATCGGCACGTGCGTGG,-0.14
14,TTTAACACGTGTGCGG,0.06
15,TAACTCACGTGTGTAA,0.31
16,TGCGACACGTGGGGTA,-0.25
17,TATTTCACGTGAGTAA,0.31
18,TAGGGCACGTGGACTT,-0.04
19,GTTGACACGTGAAGCG,0.32
20,AGGTGCACGTGCGTGT,-0.11
21,GGAGCCACGTGGTTAG,-0.02
22,CTTATCACGTGTGTAT,0.2
23,TATTTCACGTGGGTTA,0.11

row,Sequence,relative binding free energy [kcal/mol]
1,TTAGACACGTGCAGGG,-0.07
2,GGGATCACGTGGAGGG,0.11
3,AAGAGCACGTGGATTG,-0.05
4,CGCGTCACGTGGGTAG,-0.14
5,AAGGGCACGTGATAAG,0
6,TATGGCACGTGCTCGT,-0.26
7,AGCTTCACGTGTGTTA,0.23
8,CTTGGCACGTGGCGCG,-0.2
9,CGGTACACGTGATTAT,0.32
10,ACGAGCACGTGAGGTG,0.21
11,GGCGGCACGTGTAGAT,0.29
12,ATTGTCACGTGGAACG,0.18
13,AAATTCACGTGGTAGT,0.21
14,TCGTGCACGTGCTCGG,-0.06
15,AGATGCACGTGATAGT,0.12
16,TGACGCACGTGGCTGG,-0.2
17,CGTGGCACGTGGCCGG,-0.26
18,TGTTGCACGTGAGAAG,0.17
19,GTTATCACGTGTGGTG,0.19
20,CTGTGCACGTGAAGGG,0.23
21,AGTGGCACGTGGTACA,-0.25
22,GTAGGCACGTGTACTT,0.05
23,ATTAGCACGTGTGGTT,0.06
